{"source": "PubChem BioAssay AID493208", "about": "(National Center for Advancing Translational Sciences (NCATS), 2011)", "note": "The whole screen tested about 44,000 compounds, of which about 340 (0.77%) were called active. Another 5% or so got no clear call; they are omitted. Calls follow the shape of the dose curve; as a rule, active = well fitted inhibition curve with a large enough effect; inconclusive = small, poorly fitted or top-dose-only effect; inactive = flat fitted curve, though single readings scatter. This is one part of the list.", "data": [{"test": "Acumen qHTS Assay for Inhibitors of the mTORC1 Signaling Pathway in MEF (Tsc2-/-, p53-/-) Cells: Sytravon;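 also: plate controls were DMSO for no effect and rapamycin for full effect; nearly all actives have a fitted effect of over 50% in size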", "conditions": "phospho-rpS6 immunofluorescence/PI, 24 h; series mostly up to 38.3 µM; activity change, negative = inhibition: at the top concentration", "procedure,_shortened": "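Tsc2-/-, p53-/- mouse embryonic fibroblasts (empty-vector line) exposed to compound 24 hrs at 37 C, fixed, immunostained for phospho-rpS6 and counterstained with propidium iodide. Acumen laser scanning gives % positive cells from Alexa 488/PI ratio, thresholded using 7.5 nM rapamycin; PI count gives viability.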", "values": [{"compound": "CCc1ccc(NC(=O)c2cccn(Cc3cccc([N+](=O)[O-])c3)c2=O)cc1", "activity change, negative = inhibition": "inactive: 0.856%"}, {"compound": "Cc1cccc(-n2c(/C=C/c3ccccc3O)nc3ccccc3c2=O)c1", "activity change, negative = inhibition": "inactive: 13.3%"}, {"compound": "Cc1ccc(-n2c(/C=C/c3ccc(Br)s3)nc3ccccc3c2=O)cc1", "activity change, negative = inhibition": "inactive: 6%"}, {"compound": "O=c1c2ccccc2nc(/C=C/c2cccc3ccccc23)n1-c1ccccc1Cl", "activity change, negative = inhibition": "inactive: 10.3%"}, {"compound": "COc1ccc(Cl)cc1NC(=O)CN1C(=O)CN=C(c2ccccc2)c2cc(Cl)ccc21", "activity change, negative = inhibition": "inactive: -0.0486%"}, {"compound": "Cc1cc(-n2c(/C=C/c3ccc(Br)s3)nc3ccccc3c2=O)ccc1Br", "activity change, negative = inhibition": "inactive: -8.76%"}, {"compound": "Cc1ccc(-n2c(/C=C/c3cc(Br)cs3)nc3ccccc3c2=O)cc1", "activity change, negative = inhibition": "inactive: 11.9%"}, {"compound": "Cc1ccccc1CN1C(=O)CN=C(c2ccccc2)c2cc(Cl)ccc21", "activity change, negative = inhibition": "inactive: -13.9%"}, {"compound": "COc1ccc(C(=O)Nc2ccc(Cl)cc2C(=O)c2ccccc2)c(OC)c1", "activity change, negative = inhibition": "inactive: -17.5%"}, {"compound": "Cc1ccc(OCC(=O)N2CCN(CCc3ccncc3)CC2)cc1C", "activity change, negative = inhibition": "inactive: -24.8%"}, {"compound": "CCCCc1ccc(NC(=O)c2cccn(Cc3ccc(Cl)cc3)c2=O)cc1", "activity change, negative = inhibition": "inactive: -0.803%"}, {"compound": "Cc1c(C(c2ccc(Cl)cc2Cl)c2c(O)c3ccccc3oc2=O)c(=O)n(-c2ccccc2)n1C", "note": "(centres undefined)", "activity change, negative = inhibition": "inactive: -1.51%"}, {"compound": "O=c1c2ccccc2nc(/C=C\\c2ccccc2F)n1-c1ccc(O)cc1", "activity change, negative = inhibition": "inactive: 10.3%"}, {"compound": "CCN(CC)CCSc1nc2ccccc2c(=O)n1-c1ccc(Cl)cc1", "activity change, negative = inhibition": "inactive: 0.751%"}, {"compound": "Cc1cccc(Cn2cccc(C(=O)Nc3ccc4c(c3)OCCO4)c2=O)c1", "activity change, negative = inhibition": "inactive: 1.63%"}, {"compound": "COc1cccc(NC(=O)Cn2cc(C(=O)c3ccccc3)c3ccccc32)c1", "activity change, negative = inhibition": "inactive: 3.73%"}, {"compound": "CCCOc1ccc(C2SCC(=O)Nc3c2c(C)nn3-c2cccc(C)c2)cc1OC", "note": "(centres undefined)", "activity change, negative = inhibition": "inactive: -0.393%"}, {"compound": "Cc1ccc(Cn2cccc(C(=O)Nc3ccc4c(c3)OCO4)c2=O)cc1", "activity change, negative = inhibition": "inactive: -0.279%"}, {"compound": "Cc1ccc(Cl)cc1NC(=O)N(Cc1ccc2c(c1)OCO2)C1CCN(Cc2ccccc2)CC1", "activity change, negative = inhibition": "inactive: 0.535%"}, {"compound": "Cc1ccc2nc(NC(=O)c3cccn(Cc4ccc(Cl)cc4)c3=O)sc2c1", "activity change, negative = inhibition": "inactive: -7.91%"}, {"compound": "Cn1c(=O)n(C)c2cc(CNCCc3ccc(F)cc3)ccc21", "activity change, negative = inhibition": "inactive: -0.882%"}, {"compound": "Cc1ccc(NC(=O)Cn2cc(C(=O)c3ccccc3)c3ccccc32)cc1", "activity change, negative = inhibition": "inactive: -2.02%"}, {"compound": "Cc1ccc(-n2c(/C=C\\c3ccc(F)cc3)nc3ccccc3c2=O)cc1Cl", "activity change, negative = inhibition": "inactive: 12.2%"}, {"compound": "Cc1cccc(-c2nc(CN3C(=O)CN=C(c4ccccc4)c4ccccc43)c(C)o2)c1", "activity change, negative = inhibition": "inactive: 2.26%"}, {"compound": "CCOc1ccc(CN(CCc2ccc3c(c2)OCO3)Cc2cccc(OC)c2)cc1", "activity change, negative = inhibition": "inactive: -17.8%"}, {"compound": "COc1ccc(C)cc1NC(=O)N(Cc1ccc2c(c1)OCO2)C1CCN(Cc2ccccc2)CC1", "activity change, negative = inhibition": "inactive: -5.59%"}, {"compound": "CC(C)C12CN3CC(C(C)C)(CN(C1)C3c1ccccn1)C2=O", "note": "(centres undefined)", "activity change, negative = inhibition": "inactive: 3.38%"}, {"compound": "CCOc1ccc(NC(=O)Cn2cc(C(=O)c3ccccc3)c3ccccc32)cc1", "activity change, negative = inhibition": "inactive: 6.34%"}, {"compound": "Cc1ccc2c(c1)C(Cc1nc3ccccc3c(=O)n1-c1ccc(Br)cc1)C(=O)N2", "note": "(centres undefined)", "activity change, negative = inhibition": "inactive: -14.1%"}, {"compound": "O=C(COc1ccccc1F)N1CCN(Cc2cc(=O)n3nc(-c4ccccc4Cl)sc3n2)CC1", "activity change, negative = inhibition": "inactive: -5.06%"}, {"compound": "COc1ccc(NC(=O)c2sc3nc4c(cc3c2N)N2CCC4CC2)cc1OC", "activity change, negative = inhibition": "inactive: -28.5%"}, {"compound": "O=C(COc1cc(Cl)ccc1Cl)Nc1ccc(Cl)cc1C(=O)c1ccccc1", "activity change, negative = inhibition": "inactive: 4.72%"}, {"compound": "Cc1cccc(OCC(=O)N2CCN(CCc3ccccn3)CC2)c1", "activity change, negative = inhibition": "inactive: -25.8%"}, {"compound": "O=C(Nc1ccc(F)c([N+](=O)[O-])c1)c1cccn(Cc2ccccc2)c1=O", "activity change, negative = inhibition": "inactive: -3.39%"}, {"compound": "Cc1ccc(-n2c(=O)[nH]c3ccc(Br)cc3c2=O)cc1", "activity change, negative = inhibition": "inactive: -5.27%"}, {"compound": "C=Cc1ccc(Cn2c(C)c(CNCCc3cc(OC)ccc3OC)c(C(=O)O)c2C)cc1", "activity change, negative = inhibition": "inactive: -4.52%"}, {"compound": "CCCCc1nn2c(=O)cc(COC(=O)Cc3ccccc3)nc2s1", "activity change, negative = inhibition": "inactive: -1.86%"}, {"compound": "Cc1ccccc1Cn1cccc(C(=O)Nc2nc3ccccc3s2)c1=O", "activity change, negative = inhibition": "inactive: -0.181%"}, {"compound": "CC(C)(C)c1ccc(C(=O)Nc2ccc(Cl)cc2C(=O)c2ccccc2)cc1", "activity change, negative = inhibition": "inactive: 6.67%"}, {"compound": "O=C(Nc1cc(C(F)(F)F)cc(C(F)(F)F)c1)c1cccn(Cc2ccccc2Cl)c1=O", "activity change, negative = inhibition": "inactive: -12.3%"}, {"compound": "O=C1CN=C(c2ccccc2Cl)c2cc(Cl)ccc2N1Cc1cccc(Cl)c1", "activity change, negative = inhibition": "inactive: -6.16%"}, {"compound": "CC(C)c1nn2c(=O)cc(COC(=O)Cc3ccccc3)nc2s1", "activity change, negative = inhibition": "inactive: 3.83%"}, {"compound": "Cc1ccc(NC(=O)c2cccn(Cc3ccccc3C)c2=O)c(C)c1", "activity change, negative = inhibition": "inactive: 1.76%"}, {"compound": "Cc1ccc(CN2C(=O)c3ccccc3Sc3ccc(C(=O)N4CCC5(CC4)OCCO5)cc32)cc1", "activity change, negative = inhibition": "inactive: 10.4%"}, {"compound": "Cc1ccc(NC(=O)CN2C(=O)CN=C(c3ccccc3)c3ccccc32)cc1", "activity change, negative = inhibition": "inactive: -6.57%"}, {"compound": "CCCCCc1nc2ccccc2c(=O)n1-c1ccc(C)cc1", "activity change, negative = inhibition": "inactive: 4.71%"}, {"compound": "Cc1ccccc1-n1nc(C)c2c1NC(=O)CSC2c1ccc(N(C)C)cc1", "note": "(centres undefined)", "activity change, negative = inhibition": "inactive: -10.5%"}, {"compound": "COc1ccc(-n2c(/C=C\\c3ccccc3F)nc3ccccc3c2=O)cc1OC", "activity change, negative = inhibition": "inactive: 5.43%"}, {"compound": "COc1cccc(-n2c(/C=C/c3ccccc3O)nc3ccccc3c2=O)c1", "activity change, negative = inhibition": "inactive: -10.9%"}]}]}
